Measurements published in article PMC12136788.
The list shows a part of the results.

T1: UNK ZnF1-3 (human, UniProt Q9C0B0 31-174)
T1 sequence: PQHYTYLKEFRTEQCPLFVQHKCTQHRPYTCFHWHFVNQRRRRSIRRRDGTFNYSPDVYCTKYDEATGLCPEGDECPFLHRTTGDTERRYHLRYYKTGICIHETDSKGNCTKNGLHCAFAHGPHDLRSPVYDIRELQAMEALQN

B1: chr12:112501303:112501304:+_ENSMUSG00000021277_ENSMUST00000021706|mus_mus|FALSE|FALSE (ssRNA)
RNA: GGGAGUUCUACAGUCCGACGAUCCCAUCUCUGAGCACGGAUGUUGCUUUCGGAGCGCGCUAGCCGGAUGCAGCAGUAUGACAGGAUGGGAUGCUCGCUGGGGCCUCCUGCCUGCGGCACGGGUCACCUGCCUAUCCCCGGACACAACAGAGGAUUGAGCAUCA
B2: chr5:37680062:37680063:+_ENSMUSG00000029121_ENSMUST00000031004|mus_hu|mus_mus_mus_hu_False|28_58 (ssRNA)
RNA: GGGAGUUCUACAGUCCGACGAUCUUUGGGUGUAGCUGGUACCUCGUACACAGGACCGUCAUACAUGCCCCUGGAAACACUAUGCAAUCCAAAAACCUUAUUCCUGAUCCUGACACGCUGGUACAGGUGCUCCGGGAACGCCUUCAACAGAGGAUUGAGCAUCA
B3: chr19:29101771:29101772:-_ENSMUSG00000024782_ENSMUST00000025696|mus_mus|motif|central (ssRNA)
RNA: GGGAGUUCUACAGUCCGACGAUCAGCAGUAAGGCGCUGUUUAAUGACCUCAAAGGGCACGUUGAGAUUUAUCACUGUGUCGGUCUGAUAAACUUUAUCCAGGGCUUCUGCCUGUGGAAGUGUCCUUGGAAAUCCAUCCAACAGCAACAGAGGAUUGAGCAUCA
B4: chr9:72186818:72186819:+_ENSMUSG00000038535_ENSMUST00000098576|mus_mus|FALSE|FALSE (ssRNA)
RNA: GGGAGUUCUACAGUCCGACGAUCAGUUUUUAUUUCAGAAAGACGUUCAGAAGUUGGGAUACAAACAGAAACUUGCUCUACUAGAACUCGGCAAGAAUGAGUUUCAUGCUGACUUAAGUGUGUAGCCAUAUUAUCUAAGCCAGACAACAGAGGAUUGAGCAUCA
B5: chr12:105540249:105540250:+_ENSG00000136051_ENST00000332180|hu_mus|FALSE|FALSE (ssRNA)
RNA: GGGAGUUCUACAGUCCGACGAUCGUUAUUGAGAUUAUAGAGGUAUCUUGAGACAAAUAUGUGAAUGUUUCUCAUAAUUUCCAGGACAUCGAGUCCCUGCUCCAAAGUCUGGCUAGGAAGAUGUGCCUCUGUCAUAACCAAACCCAACAGAGGAUUGAGCAUCA
B6: chr19:45826695:45826696:-_ENSMUSG00000025220_ENSMUST00000026243|mus_hu|FALSE|FALSE (ssRNA)
RNA: GGGAGUUCUACAGUCCGACGAUCACCAAGUAUAACCACAUCCUUUGGAAAUCCUUCCAUUUUUGCAAUUUCAAAACAUCCUAACUUGCUGUAAAAUUCCAGAAUUCUUUUAUCAUCUGGUCUCACUUCACAGAAAGCUCCCCGCAACAGAGGAUUGAGCAUCA
B7: chr17:46686077:46686078:-_ENSMUSG00000015605_ENSMUST00000015749|mus_mus|FALSE|FALSE (ssRNA)
RNA: GGGAGUUCUACAGUCCGACGAUCACGGGCGGAUCAUUCACUCUUGGUGCUGUGGGUGGCAUCCAGGUUCACCACCUGUAGCUCGGUGAGGUUGCUGCUGCUCCCAGCUUGCUGCCCUAUCACAGCCAUCUGGUGAAGCUGAACCAACAGAGGAUUGAGCAUCA
B8: 22945114_22947032_1436_CDS_ENSG00000068793_ENST00000560848|human|control|control (ssRNA)
RNA: GGGAGUUCUACAGUCCGACGAUCGUACUCUUCAGCGCUGUCGGGGCAGUCCUUGUUGGAGUACUUGUCGGUGGGGUGCACAAGCUUCCAGGAAUACACUUCCAUCACGUGCGCGCUCCACUGCGACAACAGCUGCAGGCCCUGCAACAGAGGAUUGAGCAUCA
B9: chr15:84030238:84030239:+_ENSMUSG00000022437_ENSMUST00000023071|mus_hu|FALSE|FALSE (ssRNA)
RNA: GGGAGUUCUACAGUCCGACGAUCGUUUCCAACCAUGGUGUUAUAACUGCCCGUUAAUCUCCUCAAUUCAGUUACUUCAAAGGUAACGUCUAACCCAUUUGGAAGUGCGUCAUCACCUUGACAUGUGUCAAUCAAAACAUCCACCAACAGAGGAUUGAGCAUCA
B10: chr17:64801638:64801639:+_ENSG00000154229_ENST00000413366|hu_mus|hu_hu_hu_mus_False|18_78 (ssRNA)
RNA: GGGAGUUCUACAGUCCGACGAUCUAUAUAUAUAUAUACAUAUGUACACAUAUAUAGUAAGAGCCUAGUUAAACGUGUAAAGUAGCCAUUCAUUUUUAAAAUUACAUCUACAUUAAAAAAGUAAUCUAUCUGAUAGAGUGCCAGCAACAGAGGAUUGAGCAUCA
B11: chr7:66561770:66561771:+_ENSMUSG00000025326_ENSMUST00000107537|mus_mus|FALSE|FALSE (ssRNA)
RNA: GGGAGUUCUACAGUCCGACGAUCUUAGCAUUACAGUAAAUAAGAGCUCUGUCUCAACUACUACAAGAAAGAAAAUAAUCCUAAGACAUCCUUUUCCCCUUCCAAUGAUUUGAAAGCUACCAUUAUCCCCUGCCAAUUAAAAUCCAACAGAGGAUUGAGCAUCA
B12: chr14:89307221:89307222:+_ENSG00000165533_ENST00000346301|hu_mus|hu_hu_hu_mus_False|68_98 (ssRNA)
RNA: GGGAGUUCUACAGUCCGACGAUCUCCUGUUUGGUUAGUUCCAGGGAGCUUCAAAGAUGUGCCAGGGCGUGGAACUUGAGCAAUAGCAUUUUCAUCCAGGAUCAUUUCAGCAAUUCCUUCCUGGUCCACAUCAAUUUCAUCUAUCAACAGAGGAUUGAGCAUCA
B13: 56284568_56285466_1299_CDS_ENSG00000011143_ENST00000393119|human|control|control (ssRNA)
RNA: GGGAGUUCUACAGUCCGACGAUCGGUGUGUGAGCCUGGAGUGGCAGGCAGCACCACAGCCCCAUAGCCUUCCACACGGUACCUCUGCCAGAAGUCCAGCGAGAGGACCUCACAGUAGAGCACAGGCCACUCCGGGAGUGCAUCCAACAGAGGAUUGAGCAUCA
B14: chr3:88113163:88113164:+_ENSMUSG00000001416_ENSMUST00000001452|mus_mus|FALSE|FALSE (ssRNA)
RNA: GGGAGUUCUACAGUCCGACGAUCCAGUGCAAUGUUGCAUGCCAAGGAGGACCACCGACUGAUGACUUUUGUAGUAAUAGAGCUAUUGAUGAUGCUCAACAUCAUCUCACGGUUAUUGACAUCAACAGGAGUACUGAUUUUCUUCAACAGAGGAUUGAGCAUCA

What follows are binders tested against T1, UNK ZnF1-3 (assay: nsRBNS (natural sequence RNA bind-n-seq); RBNS binding buffer (assumed for nsRBNS): 25 mM Tris pH 7.5, 150 mM KCl, 3 mM MgCl2, 0.01% Triton X-100, 500 ug/ml BSA, 20 U/ml SUPERase-In, 4 C; UNK is unkempt and MSI1 is Musashi-1; names of the RNAs are library labels; protein concentration not given here; high values mean tight binding).

Binder | binding signal [enrichment R]
B1 | 0.84
B2 | 0.69
B3 | 0.717
B4 | 1.14
B5 | 0.81
B6 | 1.04
B7 | 0.512
B8 | 0.525
B9 | 0.891
B10 | 1.48
B11 | 1.44
B12 | 0.796
B13 | 1.03
B14 | 0.93
